# Test results reported in the BET-seq Pho4 binding data (Le et al. 2018).
# The other results are listed elsewhere or left out. The energies were worked out here from pooled read counts, against the library average; single values are noisy.
# Biological target: T1, Pho4 (S. cerevisiae) (UniProt P07270)
# T1 sequence: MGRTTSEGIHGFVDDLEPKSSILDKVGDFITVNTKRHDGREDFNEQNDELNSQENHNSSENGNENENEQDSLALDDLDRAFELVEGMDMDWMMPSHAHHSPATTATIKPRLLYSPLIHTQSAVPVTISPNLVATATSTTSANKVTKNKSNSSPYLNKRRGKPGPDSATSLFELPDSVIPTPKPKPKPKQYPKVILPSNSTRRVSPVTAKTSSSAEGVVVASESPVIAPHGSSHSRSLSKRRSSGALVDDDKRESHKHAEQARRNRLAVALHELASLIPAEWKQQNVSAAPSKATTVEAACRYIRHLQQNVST
# Experiment: relative binding free energy (BET-seq); higher = weaker binding
# Settings: reference: library average
row,Sequence,relative binding free energy
1,TCCATCACGTGGGGTG,-0.02 kcal/mol
2,CGGGGCACGTGAATAT,0.36 kcal/mol
3,TGGTCCACGTGGTGGC,-0.21 kcal/mol
4,TTGTACACGTGATGTT,0.19 kcal/mol
5,ATAGGCACGTGGATGT,-0.06 kcal/mol
6,GGGAGCACGTGTAATG,0.09 kcal/mol
7,GTATTCACGTGAGGCT,0.24 kcal/mol
8,TGAATCACGTGAGAGT,0.24 kcal/mol
9,CTTGCCACGTGGAGTG,-0.08 kcal/mol
10,AGTGTCACGTGTCTTA,0.1 kcal/mol
11,TTGTGCACGTGGTGGA,-0.09 kcal/mol
12,TATTGCACGTGGTGTT,-0.04 kcal/mol
13,CTACGCACGTGGAGGG,-0.15 kcal/mol
14,GGGGCCACGTGTATTT,0.05 kcal/mol
15,TTCTTCACGTGTTCTG,0.39 kcal/mol
16,GAATACACGTGGTGTG,-0.05 kcal/mol
17,GTGGCCACGTGGTTTA,0 kcal/mol
18,ACGTTCACGTGTTGGC,0.27 kcal/mol
19,GGAGGCACGTGAATGG,0.21 kcal/mol
20,CATGTCACGTGATCGG,0.19 kcal/mol
21,TCGTACACGTGGTAGA,0.13 kcal/mol
22,TTAATCACGTGTATCT,0.1 kcal/mol
23,TTGGTCACGTGCACGG,0.09 kcal/mol

row,Sequence,relative binding free energy
1,TTGCTCACGTGTGATA,0.21 kcal/mol
2,AATATCACGTGTAGTA,0.07 kcal/mol
3,TTTGCCACGTGTAGTA,0.09 kcal/mol
4,TAGGTCACGTGGCTTA,0 kcal/mol
5,GGCTGCACGTGTGGCA,0.11 kcal/mol
6,AATTTCACGTGTTTGC,0.13 kcal/mol
7,ATGGGCACGTGTTTGA,-0.1 kcal/mol
8,CGGTTCACGTGTAATA,0.32 kcal/mol
9,TCTCGCACGTGGAGTG,-0.08 kcal/mol
10,AGTCTCACGTGGGTTG,-0.01 kcal/mol
11,TGTTGCACGTGGTATT,-0.08 kcal/mol
12,AAGTTCACGTGGTGTT,0.17 kcal/mol
13,TTGAGCACGTGTCTAT,-0.14 kcal/mol
14,CTGTTCACGTGTGGTT,0.28 kcal/mol
15,GGTTACACGTGTTGTA,0.2 kcal/mol
16,TTAGACACGTGGAAGT,0.08 kcal/mol
17,TATTACACGTGTACGT,-0.04 kcal/mol
18,TTATTCACGTGTAAGA,0.29 kcal/mol
19,GAGGTCACGTGTCTGT,0.16 kcal/mol
20,CAGTCCACGTGTGGGT,-0.03 kcal/mol
21,TGTACCACGTGATATG,0.18 kcal/mol
22,ATATTCACGTGAGTAG,0.36 kcal/mol
23,AGGTTCACGTGGTCGG,0.19 kcal/mol

row,Sequence,relative binding free energy
1,GTGTTCACGTGAGATC,0.35 kcal/mol
2,GGTGGCACGTGTTCGT,-0.06 kcal/mol
3,TGTATCACGTGGTGTG,0.04 kcal/mol
4,AAAGTCACGTGTTATT,0.08 kcal/mol
5,GAGTGCACGTGGCGGG,-0.16 kcal/mol
6,ATGGCCACGTGGTCTT,-0.13 kcal/mol
7,GGCGGCACGTGTTAAG,0.02 kcal/mol
8,CGTGGCACGTGTGAGG,-0.05 kcal/mol
9,GATATCACGTGGTTAG,0.26 kcal/mol
10,CTTTTCACGTGTAGAT,0.37 kcal/mol
11,CGGTTCACGTGATGGC,0.33 kcal/mol
12,TATGTCACGTGTTCAG,-0.03 kcal/mol
13,GCGGGCACGTGTATGA,-0.01 kcal/mol
14,GGGGGCACGTGCCTGG,-0.22 kcal/mol
15,GTGATCACGTGGAGGT,0.09 kcal/mol
16,ATGTCCACGTGTGCGG,-0.03 kcal/mol
17,ATGGGCACGTGTCGCG,-0.06 kcal/mol
18,GTATTCACGTGAGGCG,0.28 kcal/mol
19,TGGGGCACGTGCTATA,-0.27 kcal/mol
20,TGTCGCACGTGCGTTA,-0.19 kcal/mol
21,GTTTTCACGTGTGCAT,0.32 kcal/mol
22,TAAGTCACGTGGAAAT,0.09 kcal/mol
23,TGAAGCACGTGATGGC,0.03 kcal/mol

row,Sequence,relative binding free energy
1,AGGGCCACGTGAGGGG,0.06 kcal/mol
2,TAATGCACGTGTGGTC,0 kcal/mol
3,TAAGGCACGTGCGGTG,-0.1 kcal/mol
4,AATTGCACGTGGTAAA,0.11 kcal/mol
5,ACGGGCACGTGTGTCG,-0.02 kcal/mol
6,GTGATCACGTGCTGTA,0.1 kcal/mol
7,GCGGTCACGTGGCTGT,-0.06 kcal/mol
8,TGGGTCACGTGGCCGT,-0.02 kcal/mol
9,TGGATCACGTGTGCGT,0.17 kcal/mol
10,CTGAACACGTGTGGGT,0 kcal/mol
11,TTTCGCACGTGTTTGT,0.04 kcal/mol
12,GGGATCACGTGATTCG,0.42 kcal/mol
13,GCGATCACGTGGGGTA,0.07 kcal/mol
14,ATTTGCACGTGTTGAG,0.14 kcal/mol
15,AAGTGCACGTGGTCGG,-0.13 kcal/mol
16,ATAAGCACGTGGGTTT,-0.27 kcal/mol
17,GTTAGCACGTGGGAGG,-0.07 kcal/mol
18,GATTGCACGTGCCGGG,-0.02 kcal/mol
19,GATGTCACGTGGGCAG,-0.13 kcal/mol
20,GCTGGCACGTGGTGTT,-0.11 kcal/mol
21,CAATGCACGTGTGTTT,0.12 kcal/mol
22,GTTAACACGTGTTAGT,0.04 kcal/mol
23,CGTATCACGTGGAATG,0.11 kcal/mol

row,Sequence,relative binding free energy
1,AGTTTCACGTGCTGTG,0.28 kcal/mol
2,TATCGCACGTGATTTA,0.03 kcal/mol
3,AAAGACACGTGGTTGT,0.03 kcal/mol
4,TTTCGCACGTGAGGAT,0.09 kcal/mol
5,GTAGGCACGTGTGAGA,0.04 kcal/mol
6,GGGTACACGTGGGGAT,0.02 kcal/mol
7,AGGGACACGTGCGGAG,0 kcal/mol
8,CGAGACACGTGTGTTG,0.05 kcal/mol
9,AGTTTCACGTGGGTAT,0.08 kcal/mol
10,GACGGCACGTGTTGGT,0.09 kcal/mol
11,TGGGGCACGTGCAGAG,-0.14 kcal/mol
12,GCATGCACGTGAGGTA,0.31 kcal/mol
13,GAGTTCACGTGAGTTA,0.39 kcal/mol
14,TAGCGCACGTGCGTGT,-0.22 kcal/mol
15,AAGTTCACGTGAGGGG,0.35 kcal/mol
16,TGTAGCACGTGGACGT,-0.09 kcal/mol
17,GGGGTCACGTGTCGGC,0.19 kcal/mol
18,AATATCACGTGAGTAT,0.19 kcal/mol
19,ATTGGCACGTGGTGAA,-0.02 kcal/mol
20,TATGTCACGTGAGGTT,0.33 kcal/mol
21,TATGCCACGTGGCTGG,-0.17 kcal/mol
22,ACGGGCACGTGTTAGA,-0.1 kcal/mol
23,ATGGGCACGTGGAGAT,-0.08 kcal/mol
